Experimental data published in the CheMixHub viscosity set.
The source gives many values for each of these; only a part stands here.

Assay: xn = mol fraction of the nth substance listed

CCNCCO + O
viscosity [mPa·s], 101 kPa
Conditions	303.15 K	308.15 K	313.15 K	318.15 K	323.15 K
x1 = 0.0499	–	1.691	1.468	1.293	1.147
x1 = 0.0998	–	3.168	2.642	2.249	1.933
x1 = 0.1506	–	4.98	4.071	3.386	2.853
x1 = 0.2011	–	6.866	5.535	4.542	3.786
x1 = 0.2982	–	10.36	8.175	6.598	5.373
x1 = 0.4029	–	13.17	10.31	8.211	6.652
x1 = 0.4458	–	13.88	10.84	8.636	6.951
x1 = 0.5051	–	14.48	11.26	8.94	7.192
x1 = 0.5529	18.74	14.48	11.29	8.986	7.232
x1 = 0.6002	18.37	14.21	11.12	8.889	7.163
x1 = 0.6508	17.75	13.67	–	8.605	6.965
x1 = 0.7049	16.67	13	10.26	8.254	6.711
x1 = 0.7985	–	11.44	9.124	7.418	6.078
x1 = 0.9014	12.14	9.709	7.861	6.443	5.363

N[C@@H](CO)C(=O)O + O
viscosity [mPa·s]
Conditions	293.15 K	298.15 K	303.15 K	308.15 K	313.15 K	318.15 K	323.15 K
100 kPa, x1 = 0.000191	–	0.8931	0.7996	0.721	0.6546	–	–
100 kPa, x1 = 0.00036	–	0.8953	0.8015	–	–	–	–
100 kPa, x1 = 0.00045	–	0.8961	0.8023	0.7238	–	–	–
100 kPa, x1 = 0.000722	–	0.9	0.8056	0.7257	0.6587	–	–
100 kPa, x1 = 0.0009	–	0.9013	0.8067	0.7275	0.6598	–	–
100 kPa, x1 = 0.00108	–	0.9046	0.8096	0.7288	0.6614	–	–
100 kPa, x1 = 0.0013	–	–	0.8112	0.7316	–	–	–
100 kPa, x1 = 0.00146	–	0.9095	0.8139	0.7321	0.6643	–	–
100 kPa, x1 = 0.0018	–	0.9125	0.816	0.7356	0.6663	–	–
100 kPa, x1 = 0.001802	–	0.914	0.8178	0.7351	0.667	–	–
100 kPa, x1 = 0.001877	–	0.909	0.813	0.732	–	0.6	0.544
100 kPa, x1 = 0.002243	–	0.9198	0.8228	–	0.6705	–	–
100 kPa, x1 = 0.00225	1.037	0.9178	0.821	0.7398	–	–	–
100 kPa, x1 = 0.002673	1.042	0.9255	0.8277	0.7426	0.6739	–	–
100 kPa, x1 = 0.00269	1.043	0.9237	0.8256	0.7437	0.6726	–	–
100 kPa, x1 = 0.00314	–	0.9295	–	0.748	–	–	–
100 kPa, x1 = 0.003583	1.045	–	0.829	–	–	0.609	0.552
100 kPa, x1 = 0.00359	–	0.9351	0.8349	0.7519	0.6793	–	–
100 kPa, x1 = 0.00531	–	–	0.846	–	–	0.62	0.563
100 kPa, x1 = 0.007277	1.099	0.973	0.868	0.78	0.706	0.636	0.577
100 kPa, x1 = 0.008975	1.123	0.996	0.889	0.798	0.721	0.65	0.588
101.3 kPa, x1 = 0.0004484	–	–	–	0.722	–	0.597	–
101.3 kPa, x1 = 0.0008915	–	–	–	0.726	0.66	0.601	–
101.3 kPa, x1 = 0.001352	–	–	–	0.73	0.664	0.605	–
101.3 kPa, x1 = 0.001784	–	–	–	0.734	0.668	0.609	–
101.3 kPa, x1 = 0.002244	–	–	0.819	0.738	0.672	0.613	–
101.3 kPa, x1 = 0.002683	–	–	0.823	0.742	–	0.617	–
